The supplement of paper PMC12355420
Where a name gives a salt, the structure may show the parent alone. The list shows a part of the results. Cut-off read from the data, not from the text of the source: active = 0.5 or less and inactive = the rest. Repeats are few or missing, and single values can be far off.

Legend:
Details in all cases: 50 µM; 24 h
[1] = tested on: HeLa VPS33A reporter cells; test: relative cell viability (CellMask signal) vs DMSO (fraction of DMSO); higher = less cytotoxic;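 note: primary screen of an FDA-approved drug library in HeLa reporter cells in 96-well format, CellMask signal normalized to DMSO-treated wells set as 1, under 0.5 deemed highly cytotoxic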
[2] = tested on: HeLa VPS33A R498W KI + HA-SDC1-FLAG; test: relative GAG core protein HA-SDC1 amount per cell number vs DMSO (fraction of DMSO); higher = more SDC1 (GAG core protein);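 note: HA-SDC1 level read out by In-Cell Western staining with an anti-HA antibody against the N-terminal tag, screening FDA-approved library drugs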
[3] = tested on: HeLa VPS33A KO + NLuc-VPS33A R498W; test: relative mutant VPS33A R498W amount (NanoLuc luminescence) vs DMSO (fraction of DMSO); HeLa model of a glycosaminoglycan (GAG) storage disease; KI is knock-in and KO knock-out; SDC1 is syndecan 1; higher = higher mutant VPS33A level;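 note: screen of an FDA-approved drug library, NanoLuc luminescence read after lysing the treated cells, taken as a measure of mutant VPS33A protein stability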

| Compound | relative cell viability [1] | relative GAG core protein HA-SDC1 amount per cell number [2] | relative mutant VPS33A R498W amount [3] |
| --- | --- | --- | --- |
| C[N+](C)(C)C[C@H](O)CC(=O)[O-] [L-Carnitine inner salt] | 0.954 | inactive: 0.644 | 1.15 |
| CN(C)/N=N/c1[nH]cnc1C(N)=O [Dacarbazine] | 1.19 | inactive: 0.671 | 1 |
| CC(=O)N[C@H](Cc1ccc2ccccc2c1)C(=O)N[C@H](Cc1ccc(Cl)cc1)C(=O)N[C@H](Cc1cccnc1)C(=O)N[C@@H](CO)C(=O)N[C@@H](Cc1ccc(O)cc1)C(=O)N[C@H](CCCNC(N)=O)C(=O)N[C@@H](CC(C)C)C(=O)N[C@@H](CCCNC(=N)N)C(=O)N1CCC[C@H]1C(=O)N[C@H](C)C(N)=O [Cetrorelix] | 0.868 | inactive: 0.903 | 0.509 |
| CC1(C)CCC(C)(C)c2cc(NC(=O)c3ccc(C(=O)O)cc3)ccc21 [Tamibarotene] | 0.744 | inactive: 0.503 | 1.04 |
| COC(c1ccccc1)(c1ccccc1)[C@H](Oc1nc(C)cc(C)n1)C(=O)O [Ambrisentan] | 0.912 | inactive: 0.846 | 1.12 |
| O=c1ncn2nc(Sc3ccc(F)cc3F)ccc2c1-c1c(Cl)cccc1Cl | 0.947 | active: 0.456 | 0.231 |
| NC(=O)N1c2ccccc2C=Cc2ccccc21 [Carbamazepine] | 1.2 | inactive: 1.08 | 0.995 |
| COc1ccc2c(c1)c(CC(=O)O)c(C)n2C(=O)c1ccc(Cl)cc1 [Indomethacin] | 1.07 | inactive: 1.15 | 0.864 |
| O=C(O)C(O)Cc1ccc(O)c(O)c1 (stereo unspecified) [Sodium Danshensu] | 1.12 | inactive: 1.15 | 1.3 |
| C[C@H](NCc1ccc(OCc2cccc(F)c2)cc1)C(N)=O [Safinamide Mesylate] | 0.96 | inactive: 1.02 | 1.42 |
| COC(=O)C1=C(C)NC(C)=C(C(=O)OCCN2CCN(C(c3ccccc3)c3ccccc3)CC2)C1c1cccc([N+](=O)[O-])c1 (stereo unspecified) [Manidipine] | 0.803 | active: 0.33 | 0.908 |
| CS(=O)(=O)n1cc2c(n1)CN([C@H]1CO[C@H](c3cc(F)ccc3F)[C@@H](N)C1)C2 | 1.04 | inactive: 1.07 | 0.977 |
| C=CC(C)(O)CCC=C(C)C (stereo unspecified) [Linalool] | 0.977 | inactive: 0.846 | 1.32 |
| C[C@](N)(Cc1ccc(O)c(O)c1)C(=O)O [Methyldopa] | 0.937 | inactive: 0.968 | 1.37 |
| N=C(N)c1ccc2cc(OC(=O)c3ccc(N=C(N)N)cc3)ccc2c1 [Nafamostat Mesylate(FUT-175)] | 0.989 | inactive: 0.863 | 0.648 |
| COc1c2occc2cc2ccc(=O)oc12 [8-Methoxypsoralen] | 1.06 | inactive: 0.825 | 1 |
| S=C(NCc1ccc2c(c1)OCO2)N1CCN(c2ncnc3c2oc2ccccc23)CC1 [Amuvatinib (MP-470, HPK 56)] | 1.05 | inactive: 1.46 | 0.628 |
| CCCCCCCN(CC)CCCC(O)c1ccc(NS(C)(=O)=O)cc1 (stereo unspecified) [Ibutilide Fumarate] | 1.02 | inactive: 0.916 | 0.981 |
| C[C@@H](O)[C@H]1C(=O)N2C(C(=O)O)=C(SCCNC=N)C[C@H]12 [Imipenem (hydrate)] | 1.1 | inactive: 0.755 | 1.03 |
| C/C(=C\CO)CCC[C@H](C)CCC[C@H](C)CCCC(C)C [Phytol] | 1.01 | inactive: 0.814 | 1.29 |
| Cc1c(Cl)cccc1Nc1ccccc1C(=O)O [Tolfenamic Acid] | 1.24 | inactive: 0.856 | 0.873 |
| CCCc1nc(C)c2c(=O)nc(-c3cc(S(=O)(=O)N4CCN(CC)CC4)ccc3OCC)[nH]n12 [Vardenafil] | 0.95 | inactive: 0.981 | 0.675 |
| O=C(/C=C/C=C/c1ccc2c(c1)OCO2)N1CCCCC1 [Piperine] | 1.01 | inactive: 0.736 | 0.72 |
| CCCC(=O)Nc1ncnc2c1ncn2[C@@H]1O[C@@H]2COP(=O)(O)O[C@H]2[C@H]1OC(=O)CCC [Dibutyryl-cAMP, sodium salt] | 1.09 | inactive: 0.792 | 1.23 |
| COc1ccc2c(c1)C(=O)N(CCc1ccc(S(=O)(=O)NC(=O)NC3CCCCC3)cc1)C(=O)C2(C)C [Gliquidone] | 0.956 | inactive: 0.526 | 0.566 |
| CC(C)(c1ccc(O)cc1)c1ccc(O)cc1 [Bisphenol A] | 0.977 | active: 0.458 | 0.702 |
| Cc1nnc(SCC2=C(C(=O)O)N3C(=O)[C@@H](NC(=O)Cn4cnnn4)[C@H]3SC2)s1 [Cefazolin (sodium salt)] | 1.01 | inactive: 0.841 | 1.77 |
